# Measured values taken from PubChem BioAssay AID624173 (National Center for Advancing Translational Sciences (NCATS), 2012).
# Among all 410,000 compounds or so, about 490 (0.12%) were called active. The shares of active, inactive and inconclusive entries below differ from those in the screen. The call rests on the fitted dose curve; in most records, active means well fitted inhibition curve with a large enough effect; inconclusive means small, poorly fitted or top-dose-only effect; inactive means flat fitted curve, though single readings scatter. A potency beside an inconclusive call is a rough fit, not a confirmed value.
# Target: pyruvate kinase (Trypanosoma brucei) (UniProt Q57TT1)
# Test: qHTS of Trypanosoma Brucei Inhibitors; further: nearly all actives have a fitted effect of over 50% in size
# Conditions: TbPYK enzyme, Kinase-Glo Plus ATP luminescence, 45 min; series mostly up to 76.8 µM; activity, negative = inhibition: at the top concentration
# Outline: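 Glycolytic pyruvate kinase of T. brucei was incubated with substrate, test compound and 130 uM ADP for 45 minutes at room temperature. Luminescent Kinase-Glo Plus signal was measured after 10 minutes.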
# On the % scale 0 is the no-effect control and ±100 the full control effect; potency means the concentration at half of the fitted maximal effect; tags describe the fitted curve by direction and shape.
Structure (SMILES),Potency,"activity, negative = inhibition"
Cc1ccc(-n2c(N)c(C(N)=O)sc2=S)cc1,"inconclusive: 28.2 µM [inhibitor, partial curve, poor fit]",–
CCCN1C(=O)S/C(=C\c2ccc(N3CCOCC3)o2)C1=O,"inconclusive: 28.2 µM [inhibitor, partial curve]",–
CCOC(=O)c1c(NS(=O)(=O)c2cccc(OC)c2)sc2c1CCC2,"inconclusive: 35.5 µM [inhibitor, single point]",–
CN1C(=O)C(=Cc2ccccc2OCCOc2ccc([N+](=O)[O-])cc2)C(=O)N(C)C1=O,"inconclusive: 44.7 µM [inhibitor, single point]",–
O=C(c1cnccn1)N1CCC2(CC1)CCN(c1cccc(-c3ccccc3)c1)CC2,–,inactive: 2.14%
COc1cccc(/C=C/c2nc(C#N)c(N3CCN(C)CC3)o2)c1,–,inactive: -2.58%
CC(C)(C)n1cn[nH]c1=S,"inconclusive: 28.2 µM [inhibitor, partial curve, poor fit]",–
Cn1nnnc1SCC(=O)NC(=O)Cc1ccccc1,"inconclusive: 35.5 µM [inhibitor, single point]",–
[Cl][In]([Cl])[Cl],inactive,–
COc1ccc(-c2noc(CSc3nc4ccccc4[nH]3)n2)cc1OC,–,inactive: -0.745%
c1cncc(-c2nnc3sc(-c4ccco4)nn23)c1,"inconclusive: 7.08 µM [inhibitor, full curve, poor fit]",–
Cc1cc2cc(C(c3nnnn3Cc3ccco3)N3CCc4ccccc4C3)c(=O)[nH]c2cc1C (stereo not drawn),"inconclusive: 39.8 µM [inhibitor, single point]",–
COc1cc(C2C(C#N)=C(N)N(c3ccc(F)cc3)C3=C2S(=O)(=O)CC3)ccc1O (stereo not drawn),"inconclusive: 28.2 µM [inhibitor, single point]",–
CCOC(=O)N1CCC(=NNC(=O)c2ccccc2F)CC1,"inconclusive: 50.1 µM [inhibitor, single point]",–
O=C(/C=C/Nc1cccc(O)c1)c1ccccc1,–,inactive: -11.7%
COC1=CC(=O)C=C(OC)C1=O,"inconclusive: 2.51 µM [inhibitor, partial curve, poor fit]",–
Cn1c(=O)n(C)c2cc(N3CCOCC3)c(NS(=O)(=O)c3cccc(C#N)c3)cc21,"inconclusive: 12.6 µM [inhibitor, partial curve, poor fit]",–
S=c1[nH]nc(-c2ccc3c(c2)OCO3)n1-c1ccccc1,"inconclusive: 6.31 µM [inhibitor, partial curve, poor fit]",–
O=C(Nc1ccc2c(c1)CCC2)Nc1ccccc1Cl,–,inactive: -8.51%
CCOC(=O)c1sc(=S)n(-c2ccccc2OC)c1N,"inconclusive: 20 µM [inhibitor, partial curve]",–
CCN1CCN(C(=S)c2ccc(-c3ccccc3)cc2)CC1,"inconclusive: 11.2 µM [inhibitor, partial curve, poor fit]",–
Cc1ccc(/C=N/n2c(-c3ccccn3)n[nH]c2=S)o1,"inconclusive: 12.6 µM [inhibitor, partial curve]",–

Structure (SMILES),Potency,"activity, negative = inhibition"
O=C(CCSc1ccc(Cl)cc1)NCc1ccccn1,–,inactive: -3.91%
CCC(/C=C1\Sc2ccc(OC)cc2N1CC)=C\c1sc2ccc(OC)cc2[n+]1CCCS(=O)(=O)[O-],"inconclusive: 20 µM [inhibitor, partial curve, poor fit]",–
COc1ccc2c(=O)c(C(=O)NCCc3ccc(OC)c(OC)c3)c[nH]c2c1,–,inactive: -0.602%
Clc1ccccc1Nc1nc2ccccc2o1,"inconclusive: 31.6 µM [inhibitor, single point]",–
CCOC(=O)c1cc(-c2ccc(/C=C3/C(=O)NC(=O)C(C#N)=C3C)o2)ccc1Cl,"inconclusive: 35.5 µM [inhibitor, single point]",–
O=C(O)C1CC=CCC1C(=O)N1CC=C(c2ccccc2)CC1 (stereo not drawn),–,inactive: -15.1%
O=C(c1ccccc1)c1ccc(C(=O)N2CCN(c3ccc(O)cc3)CC2)cc1,"inconclusive: 31.6 µM [inhibitor, partial curve]",–
Cc1nn(C)c(Sc2ccccc2N)c1[N+](=O)[O-],"inconclusive: 15.8 µM [inhibitor, partial curve, poor fit]",–
Cc1cc(C)c(S(=O)(=O)Nc2cccc3nsnc23)c(C)c1,"inconclusive: 39.8 µM [inhibitor, single point]",–
Cc1ccc(/C=C2\C(=O)NC(=S)N(c3cccc(F)c3)C2=O)o1,"inconclusive: 6.31 µM [inhibitor, partial curve]",–
COc1ccc(-c2nsc(SCC(=O)NCC3CCCO3)n2)cc1 (stereo not drawn),–,inactive: -10.5%
C=CCn1c(SCC(=O)Nc2cccc(S(=O)(=O)N(C)c3ccccc3)c2)nnc1C1CC1,"inconclusive: 56.2 µM [inhibitor, single point]",–
O=C(NCc1ccccc1Cl)C(=O)NCC1CCCN1S(=O)(=O)c1cccs1 (stereo not drawn),"inconclusive: 28.2 µM [inhibitor, single point]",–
CC(C)c1cc[n+](-c2nc([O-])sc2C=O)cc1,active: 28.2 µM,–
COc1ccc(/C=C2\SC(c3ccc(C)cc3)=NC2=O)cc1OC,active: 8.91 µM,–
O=S(=O)(c1cccc(-c2n[nH]c(=S)n2-c2cccc(C(F)(F)F)c2)c1)N1CCOCC1,"inconclusive: 15.8 µM [inhibitor, partial curve, poor fit]",–
Cc1ccc(S(=O)(=O)NCC(=O)OCC(=O)N2N=C(c3ccc(Cl)cc3)CC2c2ccco2)cc1C (stereo not drawn),"inconclusive: 44.7 µM [inhibitor, partial curve, poor fit]",–
COc1ccc2c(c1)OC[C@H]1[C@H]2N2C(=O)c3ccc(C)cc3NC(=O)[C@@]2(C)[C@H]1c1ccccc1,"inconclusive: 50.1 µM [inhibitor, single point]",–
CC(C)CNC(=O)C1Nc2ccc(OC(F)(F)F)cc2C2C=CCC12 (stereo not drawn),"inconclusive: 35.5 µM [inhibitor, single point]",–
Cc1ccc(NN2C(=O)C=C(c3ccccc3)C2=O)cc1,"inconclusive: 20 µM [inhibitor, partial curve]",–
O=S(=O)(c1cccc(-c2n[nH]c(=S)n2C2CCCC2)c1)N1CCOCC1,active: 6.31 µM,–
